# The other results are listed elsewhere or left out.
# Target: T1, OsWOX13 (Oryza sativa, UniProt Q5QMM3 1-267)
# T1 sequence: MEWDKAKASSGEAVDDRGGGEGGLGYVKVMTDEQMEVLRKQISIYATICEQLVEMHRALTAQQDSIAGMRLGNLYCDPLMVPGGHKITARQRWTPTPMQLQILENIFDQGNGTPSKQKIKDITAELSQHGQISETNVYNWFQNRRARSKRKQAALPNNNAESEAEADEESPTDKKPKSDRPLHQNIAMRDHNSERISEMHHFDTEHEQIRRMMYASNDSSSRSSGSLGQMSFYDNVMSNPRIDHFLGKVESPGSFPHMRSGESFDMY
# Test: protein-binding microarray (RPBM); PBS, 2% BSA, 51.3 ng/ul salmon testes DNA, 50 uM zinc acetate, 200 nM TF, 25 C, 1 h; high values mean tight binding
# Conditions: protein: recombinant; tags: N-terminal polyhistidine and DsRed monomer fusion (pET32a); label: CyDye5-dUTP incorporated in the synthesized complementary strand; 3' TTTTT single-stranded linker to array surface; dsDNA, one strand shown
# In short: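 Transcription factors, each fused N-terminally to a polyhistidine tag and DsRed, were expressed in E. coli BL21-CodonPlus and purified on Ni–NTA. A custom Agilent array was made double-stranded by primer extension with Cy5-dUTP and blocked with 2% BSA. It was incubated with 200 nM protein in PBS, 2% BSA, salmon testes DNA and 50 µM zinc acetate at 25 °C for 1 h, then washed. The binding signal is per-feature fluorescence intensity (arbitrary units) read on an Axon 4000B scanner.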
row,Sequence,binding signal
1,ATATACAAAATTTGTTAATCACAAAATATATAACACATATCGGAGTCACCTAGTGCAG,6780 fluorescence intensity (a.u.)
2,GCGGTTTTGTCGATAATCATGATTGTTAGTACTCGACAATCGGAGTCACCTAGTGCAG,8170 fluorescence intensity (a.u.)
3,TAAAATGAAGAGATGATTGTGCAAGCTTGTGGATGGGCCCCGGAGTCACCTAGTGCAG,18300 fluorescence intensity (a.u.)
4,CAAAATGCTTTGACTGGATAGGATAAAACCATCTGGCCGCCGGAGTCACCTAGTGCAG,3500 fluorescence intensity (a.u.)
5,AGGTGATTTACTATTAATCTAGTCTATTGCTGAGATGTACCGGAGTCACCTAGTGCAG,36900 fluorescence intensity (a.u.)
6,CATAATCCATCAATCATTCATTCCTAGCTCACATAAGACTCGGAGTCACCTAGTGCAG,18300 fluorescence intensity (a.u.)
7,CTCAGCTGTTAAGCTGAGTGATTAACTCTTAAGCAATCACCGGAGTCACCTAGTGCAG,5130 fluorescence intensity (a.u.)
8,TCAGATTGATCAACTCAAGCAGTCAGGGTCGGTGAATGAGCGGAGTCACCTAGTGCAG,27300 fluorescence intensity (a.u.)
9,CAACCCTGATTGTTGGGGTACCAGCTTATATTTCACATTTCGGAGTCACCTAGTGCAG,12900 fluorescence intensity (a.u.)
10,ATTTAATTATTTATATACTTAATTAGATAATCTATAATAACGGAGTCACCTAGTGCAG,22100 fluorescence intensity (a.u.)
11,CAAAATCATTTATATTATGGGACGGAGGGAGTACAAACTACGGAGTCACCTAGTGCAG,3970 fluorescence intensity (a.u.)
12,AATTAATTGATATGTAATAAATGAGTGGATGTTTACTACTCGGAGTCACCTAGTGCAG,47200 fluorescence intensity (a.u.)
13,ATAATGTGATTGCCGGTGTTGTATCTATATCCGGAGGCTCCGGAGTCACCTAGTGCAG,14500 fluorescence intensity (a.u.)
14,ATAATTGTAATATAATTCCACTATAATTGTAATATGACTTCGGAGTCACCTAGTGCAG,16200 fluorescence intensity (a.u.)
15,CCAAGATTTGCCGCGACGATAAATCCTCTCGTTTCTCCGCCGGAGTCACCTAGTGCAG,3190 fluorescence intensity (a.u.)
16,TCTACAAATTAAGCTCTTAGTACTGACACAATCCAGCAGTCGGAGTCACCTAGTGCAG,3640 fluorescence intensity (a.u.)
17,CAATTGTAAATTTACCACGGTTTTGAATCGTTATTGCGAACGGAGTCACCTAGTGCAG,7620 fluorescence intensity (a.u.)
18,CTTCGTCAAATTAAACTAATCTAGTATAAGATTGGAACATCGGAGTCACCTAGTGCAG,11400 fluorescence intensity (a.u.)
19,TAGAGAATAATTAATTGAGTATTGTTATTACAAATTTAAACGGAGTCACCTAGTGCAG,7440 fluorescence intensity (a.u.)
20,TGTATAATTTCACCGTATTATGTACTTTGATAGTGTCTGTCGGAGTCACCTAGTGCAG,5000 fluorescence intensity (a.u.)
21,ACTAATTGCACAGTTACAGTAACCCACATATAATAATAATCGGAGTCACCTAGTGCAG,34000 fluorescence intensity (a.u.)

row,Sequence,binding signal
1,CCTGCCAATTAAAATTAAATTGAATTTAAAGTGCACTCTTCGGAGTCACCTAGTGCAG,39800 fluorescence intensity (a.u.)
2,ATCCAATCCAATCCAATCAAATCACATCGATCGACGCCGCCGGAGTCACCTAGTGCAG,35300 fluorescence intensity (a.u.)
3,CCCTTGTTTCTGTTTTGATTGCAACCTAAGAGACTCTTGACGGAGTCACCTAGTGCAG,6270 fluorescence intensity (a.u.)
4,TAATTGATTTGGGATTCAGTTTATCCACCGATTCCTCCGCCGGAGTCACCTAGTGCAG,48700 fluorescence intensity (a.u.)
5,ATTACACAGATTGCATGTAAATTGCGATACAAATCTTTTACGGAGTCACCTAGTGCAG,4760 fluorescence intensity (a.u.)
6,AAATAACTAATTACACAGATTGCGACTAGTTTGAGAGATGCGGAGTCACCTAGTGCAG,30300 fluorescence intensity (a.u.)
7,AGGAATTTATCATGATTATTGCTCATCTCAATAACAATTCCGGAGTCACCTAGTGCAG,27400 fluorescence intensity (a.u.)
8,CCATGATTGCTAAAAGTTTGCATTCGACCCCTTCCCTAATCGGAGTCACCTAGTGCAG,13000 fluorescence intensity (a.u.)
9,AAGTTAAACCACTTTAAATTAACTAGATTTATTTATAGGACGGAGTCACCTAGTGCAG,6280 fluorescence intensity (a.u.)
10,ATTAAATTTATTATTAAAATAGATAATAATTCGTGAAAACCGGAGTCACCTAGTGCAG,12800 fluorescence intensity (a.u.)
11,ATAATGACAAATTGACTTTTGGGTGGTCCTGCTTCTACCTCGGAGTCACCTAGTGCAG,20200 fluorescence intensity (a.u.)
12,GAATAAATAGGGGTTGATGACGTGGGTCCGGTCGCGGTTTCGGAGTCACCTAGTGCAG,6660 fluorescence intensity (a.u.)
13,ATCATTAACTGCGCCACAACAAATCAACAGTCATCAAGACCGGAGTCACCTAGTGCAG,8630 fluorescence intensity (a.u.)
14,GACGACATTAATTTGAGAGAATATGGTTTCAACCGAACCACGGAGTCACCTAGTGCAG,5210 fluorescence intensity (a.u.)
15,GCATAAAATATTAATCATGTTTTATCATCTCACAACAATGCGGAGTCACCTAGTGCAG,4640 fluorescence intensity (a.u.)
16,TTTAATCTAAATTTGGTACATTAGAGGCCAGGGATGTTCTCGGAGTCACCTAGTGCAG,10600 fluorescence intensity (a.u.)
17,AAATTTGCATAATTATGAAATAACATATCACATATTAATCCGGAGTCACCTAGTGCAG,16900 fluorescence intensity (a.u.)
18,ATTCTGATTGGCAAGTTGGTTATTCCTTTTCTGATTGGTTCGGAGTCACCTAGTGCAG,60700 fluorescence intensity (a.u.)
19,GGTGCCAATTATGACCCATCACTGATAAGGGAAAATTCAACGGAGTCACCTAGTGCAG,14300 fluorescence intensity (a.u.)
20,TTGTGGTGATTGAGAGGGTTTGAAAGGGGTTGATGTGTGGCGGAGTCACCTAGTGCAG,40000 fluorescence intensity (a.u.)
21,ATACAACCTAAATTTACCAATTAATCCAAATATAACTATTCGGAGTCACCTAGTGCAG,5660 fluorescence intensity (a.u.)

# From article PMC7819943, “Rice protein-binding microarrays: a tool to detect cis-acting elements near promoter regions in rice”
